Laboratory results published in PubChem BioAssay AID1347073 (National Center for Advancing Translational Sciences (NCATS), 2019).
Out of some 45,000 compounds screened, about 200 (0.44%) were called active. About 7% were inconclusive and are not listed. Calls come from the whole dose curve; as a rule, active = well fitted activation curve with a large enough effect; inconclusive = small, poorly fitted or top-dose-only effect; inactive = no such curve, though single readings can be large or run the other way. This is one part of the list.

Assay: qHTS of TDP-43 Inhibitors: NCGC Sytravon Library Screen; note: 0% is about no effect; nearly all actives have a fitted effect of over 55% in size
Details: yeast TDP-43 toxicity rescue, BacTiter-Glo growth, 24 h; series mostly up to 46.1 µM; growth rescue (activation): at the top concentration
Outline: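 TDP-43-expressing yeast, pregrown in raffinose, seeded at OD600 0.02 in galactose medium with compound for 24 hr at 30 deg C. Growth read by BacTiter-Glo luminescence, so rescue of toxicity appears as activation.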

| Compound | growth rescue (activation) |
| --- | --- |
| CC(=O)NC(NC(=S)Nc1cccc(Br)c1)C(Cl)(Cl)Cl (centres undefined) | inactive: 32.6% |
| C=CCn1cc(/C=N/NC(=O)COc2cccc3cccnc23)c2ccccc21 | inactive: 8.03% |
| Cc1cccc(NC(=O)C2CCCN2S(=O)(=O)c2ccc(Cl)cc2)n1 (centres undefined) | inactive: 13.8% |
| O=c1[nH]c2ccc(S(=O)(=O)N3CCCC3)cc2[nH]1 | inactive: -6.71% |
| CCc1nc2ccc(C(=O)N3CCN(C(=O)c4ccco4)CC3)cn2c1N(C=O)Cc1ccc(OC)cc1 | inactive: -10.7% |
| O=C(NC1CCN(S(=O)(=O)c2ccc(F)cc2)CC1)c1cccnc1 | inactive: 13.4% |
| COc1ccccc1NC(=O)c1cc(-c2cc(OC)c(OC)c(OC)c2)nc2ccccc12 | inactive: 18.7% |
| O=C(COc1ccc(Br)cc1Cl)NC(=O)NCc1ccccc1 | inactive: 6.56% |
| CCC1SC2=NC(C)=C(C(=O)OC)C(c3ccc(C)cc3)N2C1=O (centres undefined) | inactive: -1.1% |
| CCOc1cc(N2CCOCC2)c(OCC)cc1NC(=O)COC(=O)[C@@H]1CCCN1S(=O)(=O)c1ccccc1F | inactive: 8.52% |
| Cc1ccc(-c2nnc(N)s2)cc1 | inactive: 26.1% |
| Cn1nc([N+](=O)[O-])nc1S(C)(=O)=O | inactive: 21.1% |
| Cn1c(=O)c2[nH]c(NCC3CCCO3)nc2n(-c2ccccc2)c1=O (centres undefined) | inactive: -10.4% |
| CCN(CC)C(=O)c1nn(-c2ccccc2)c2c1C1CCC2(C)C1(C)C (centres undefined) | inactive: 4.17% |
| Cc1ccc(S(=O)(=O)N2CCN(C(=O)CSc3nncs3)CC2)cc1 | inactive: 20.6% |
| O=C(COc1ccc([N+](=O)[O-])cc1)NNC(=O)c1cccnc1 | inactive: -3.01% |
| COc1ccc(CNC(=O)C2CCN(S(=O)(=O)c3ccc(-c4nn[nH]n4)cc3)CC2)cc1 | inactive: -21.8% |
| CCc1onc(C)c1C(=O)O | inactive: 0.261% |
| CC(C)n1nc(C(=O)NCc2ccc3c(c2)OCO3)c2ccccc2c1=O | inactive: 26.6% |
| Cc1cc(Cl)ccc1NC(=S)NCCN1CCOCC1 | inactive: 5.77% |
| CCN(CC)c1c(C)nc2ccc(C(=O)NCc3ccc4c(c3)OCO4)cn12 | inactive: 1.14% |
| COc1ccc(CCNC(=O)Cn2c(=O)c3sccc3n(CC(=O)Nc3cccc(C(F)(F)F)c3)c2=O)cc1OC | inactive: -6.03% |

| Compound | growth rescue (activation) |
| --- | --- |
| O=C(Nc1c(Cl)ccc2nsnc12)c1ccco1 | inactive: -13.6% |
| Cc1c(Br)cccc1NC(=O)c1sccc1-n1cccc1 | inactive: 38.5% |
| CCc1cccc2c(C(=O)CSc3nnc(-c4ccncc4)n3C)c[nH]c12 | inactive: 1.07% |
| CCCC(CCC)c1nc2ccncc2[nH]1 | inactive: -5.43% |
| CCN1CCCC1CNCc1cccc(OC)c1OCc1ccccc1 (centres undefined) | inactive: 5.72% |
| CCOc1ccc(S(=O)(=O)N2CCC(C(=O)NCc3cccnc3)CC2)cc1C | inactive: 13.2% |
| N#Cc1c(-c2ccccc2)nc(N2CCN(Cc3ccccc3)CC2)[nH]c1=O | inactive: -5.06% |
| S=C1NC2(CCCC2)Nc2ccccc21 | inactive: 22.7% |
| COc1ccccc1NC(=S)N/N=C/c1cccc(C)c1 | inactive: 24.7% |
| CN(C)c1cccc(CNC(=O)c2csc([C@@H]3C[C@H](O)[C@@H](CO)O3)n2)c1 | inactive: -8.23% |
| COc1cc(/C=N/N2CCN(C3c4ccccc4-c4ccccc43)CC2)cc(OC)c1O | inactive: 25.6% |
| COc1ccc(NC(=O)c2cc(-c3cccs3)on2)cc1 | inactive: -6.82% |
| O=C(NCCN1CCOCC1)/C(=C/c1ccc(Cl)cc1)NC(=O)c1ccccc1 | inactive: 0.747% |
| O=C(O)CC/C(=C/c1cccc(NC(=O)c2ccccc2Cl)c1)c1nc2ccccc2s1 | inactive: -2.83% |
| COc1ccc(C2c3ccc(O)cc3Oc3ncn(CCN4CCOCC4)c(=N)c32)cc1OC (centres undefined) | inactive: 9.48% |
| COc1cccc(C(=O)N(Cc2ccc(N(C)C)cc2)Cc2ccco2)c1 | inactive: 9.25% |
| NC(=O)c1cccc(-c2ccnc3c2CC(C(=O)NCC2CC2)O3)c1 (centres undefined) | inactive: 16.2% |
| Cc1oc2cc3oc(=O)c(CC(=O)NCCCC(=O)O)c(C)c3cc2c1C | inactive: 9.81% |
| COc1cn(-c2ccccc2)nc1C(=O)NCc1ccccc1 | inactive: 2.37% |
| Cc1ccc(CCN2CC(C(=O)NCc3ccco3)CC2=O)cc1 (centres undefined) | inactive: 4.25% |
| Cc1ccc2sc(N(CCCN(C)C)C(=O)c3ccco3)nc2c1C | inactive: 3.73% |
| Cc1ccc(Oc2ccc(OCC(=O)NC3CCS(=O)(=O)C3)cc2)cc1 (centres undefined) | inactive: -1.1% |

| Compound | growth rescue (activation) |
| --- | --- |
| CCOC(=O)C1=C(C(F)(F)F)Nc2ncnn2C1c1cc(OC)c(OC)cc1OC (centres undefined) | inactive: 14.8% |
| COC(=O)c1cn(C(=O)/C=C/c2ccc(OC)c(OC)c2)c2ccccc12 | inactive: 6.31% |
| COc1ccc(C(=O)NCC(=O)NCc2ccncc2)cc1 | inactive: 22.5% |
| Cc1ccccc1NC(=O)CN1CCC(C(=O)c2ccc3c(c2)OCCO3)CC1 | inactive: 6.82% |
| O=C(O)c1ccccc1NS(=O)(=O)c1ccc2ccccc2c1 | inactive: -1.34% |
| Cc1ccccc1NC(=S)N(Cc1ccco1)C(C)c1cccs1 (centres undefined) | inactive: 7.51% |
| Cc1cccc(-c2nc3cc(NC(=O)c4ccc(OCC(C)C)cc4)ccc3o2)c1 | inactive: 4.87% |
| Cc1ccn2c(c1)nc(=O)c1cc(S(=O)(=O)N3CCCCC3)ccc12 | inactive: 3.78% |
| O=C(c1ccccc1)c1c(O)cc(-c2ccccc2)oc1=O | inactive: -20% |
| O=C(Nc1ccc(S(=O)(=O)N2CCCC2)cc1)c1ccc2c(=O)n3c(nc2c1)CCCCC3 | inactive: 8.31% |
| O=C(CSc1ccccn1)N1CCNC1=O | inactive: 8.49% |
| Cn1nnnc1SCC(=O)Nc1cc(S(=O)(=O)N2CCCCC2)ccc1Cl | inactive: -10.5% |
| COc1ccc(/C=N/Nc2cc(OC)ncn2)cc1 | inactive: 22.6% |
| CCN(C(=O)COC(=O)/C=C/c1ccc(S(=O)(=O)N2CCc3ccccc32)cc1)C1CCS(=O)(=O)C1 (centres undefined) | inactive: -5.91% |
| CCN1CCN(C(=O)NCc2ccccc2)CC1 | inactive: -10% |
| CCOC(=O)c1cccc(NC(=O)c2ccc(-n3cnnn3)cc2)c1 | inactive: 14.6% |
| O=[N+]([O-])c1ccc(COn2nnc3ccccc32)cc1 | inactive: 18.2% |
| O=C(CCl)NNC(=O)c1c(O)c2ccccc2[nH]c1=O | inactive: -7.57% |
| CCOC(=O)Cc1nnc(NC(=O)CSc2nc3ccccc3[nH]2)s1 | inactive: 29.4% |
| Cc1c(C(=O)N(C)Cc2ccc(OC(F)F)cc2)oc2ccccc12 | inactive: 32% |
| CN1CCN(C(=O)C2C3C=CC(C3)C2C(=O)O)CC1 (centres undefined) | inactive: 12.9% |
| COc1ccc([N+](=O)[O-])cc1NC(=O)CCCOc1ccccc1 | inactive: 19.6% |

| Compound | growth rescue (activation) |
| --- | --- |
| Cc1ccc(S(=O)(=O)N(C)C)cc1NC(=S)N(CCC#N)Cc1cccnc1 | inactive: 0.794% |
| O=C(CCc1nnc(CCCc2ccccc2)o1)NC(C1CC1)C1CC1 | inactive: 19.6% |
| CCCc1nc2ccccc2c(C(=O)O)c1CC | inactive: 18.2% |
| CCc1ccc(NC(=O)Cc2c(C(=O)O)n(C)c3ccccc23)cc1 | inactive: 8.21% |
| O=c1nc(N2CCCC2)nc(Nc2ccccc2)[nH]1 | inactive: 26.5% |
| Cn1c(CNC(=O)c2ccccc2F)nnc1SCC(=O)c1ccccc1 | inactive: 17% |
| CCc1nc2c(OCc3ccc4c(c3)OCO4)cccn2c1N(C=O)Cc1ccccc1 | inactive: -2.89% |
| Cc1[nH]c2ccccc2c1C(c1ccccn1)N1CCCC1 (centres undefined) | inactive: 2.17% |
| COC(=O)c1ccc(-n2c(C)cc(C(=O)CSc3ccc(NC(C)=O)cc3)c2C)cc1 | inactive: 1.1% |
| NC(c1ccc(F)c(F)c1)c1nc(-c2ccc3ccccc3c2)cs1 (centres undefined) | inactive: 0.912% |
| CC(C)CCN1CCN(C2CCN(c3ccc4c(c3)OCO4)CC2)CC1CCO (centres undefined) | inactive: 6.41% |
| C/C(=N\NC(=O)c1cc2c(s1)CCC(C)C2)c1cccnc1 (centres undefined) | inactive: 6.18% |
| O=C(Cc1ccccc1)NNC(=O)C1CCCC1 | inactive: -8.52% |
| O=C(CNC(=O)c1cccc(Br)c1)N/N=C/c1ccc[nH]1 | inactive: 14.2% |
| CC(C)c1cccc(C(C)C)c1NC(=O)CN1C(=O)NC2(CCCC2)C1=O | inactive: -0.268% |
| COc1ccc2c(c1)C(C)=CC(C)(C)N2S(=O)(=O)c1ccc(NC(C)=O)cc1 | inactive: -16.4% |
| CCN(CC)C(=O)C1CCCN(Cc2nc(-c3cccs3)no2)C1 (centres undefined) | inactive: 13.8% |
| O=C(CS(=O)(=O)Cc1ccccc1)Nc1nnc(C(F)(F)F)s1 | inactive: 7.42% |
| O=C(CCN1CCN(Cc2ccccc2)CC1)NNC(=O)Cc1ccc(Cl)c(Cl)c1 | inactive: 2.47% |
| CC(=O)Nc1cc(C)c2nc(NC(C)=O)sc2c1 | inactive: -0.876% |
| CN1C(=O)C(=O)/C(=C(/O)c2ccc(Br)cc2)C1c1ccccc1F (centres undefined) | inactive: -9.66% |
| COC(=O)Nc1ccc(S(=O)(=O)N2CCCCC2C(=O)O)cc1 (centres undefined) | inactive: -5.86% |

| Compound | growth rescue (activation) |
| --- | --- |
| CCN(CC)S(=O)(=O)c1ccc(OC)c(NC(=O)CSCc2c(C)noc2C)c1 | inactive: -19.6% |
| CNc1cncc(-c2ccc(S(C)(=O)=O)cc2)n1 | inactive: 5.14% |
| Cc1ccccc1Cc1c(C)nc2nc(SCC(=O)NCCCN3CCCCC3)nn2c1C | inactive: -4.27% |
| CN(C)c1ccc(/C=N/NC(=O)C(=O)N2CCCCCC2)cc1 | inactive: 3.12% |
| O=C(c1cnn(C(=O)COc2ccccc2F)c1)c1cc(F)ccc1O | inactive: -5.34% |
| COc1ccc(CC2SC(=Nc3ccc(F)cc3)NC2=O)cc1 (centres undefined) | inactive: -5.37% |
| COc1ccc([N+](=O)[O-])cc1NC(=O)C(C)N1CCCC1 (centres undefined) | inactive: 6.98% |
| COc1ccc(CC(=O)NNC(=O)c2ccc(Br)s2)cc1OC | inactive: -0.606% |
| CCCC[N+](CC#Cc1ccccc1)(CCCC)CCCS(=O)(=O)[O-] | inactive: -27% |
| O=C(COC(=O)c1ccc[nH]c1=O)NC1CCCc2ccccc21 (centres undefined) | inactive: 35.3% |
| CCN(C(=O)CSc1ncn[nH]1)c1cccc2ccccc12 | inactive: 9.18% |
| O=C(N/N=C/C=C\c1ccccc1[N+](=O)[O-])c1cc(-c2ccccc2)nc2ccccc12 | inactive: -9.54% |
| O=C(c1ccccc1)C1CN(Cc2ccccc2)CCC1(O)c1ccccc1 (centres undefined) | inactive: 1.14% |
| CCOc1ccc2nc(NC(=O)CSc3nc4cccnc4n3C)sc2c1 | inactive: -1.78% |
| COc1ccc(CCNc2nc3ccc(Cl)cc3n3cnnc23)cc1OC | inactive: -4.01% |
| COc1ccc(S(=O)(=O)N(Cc2ccccc2)c2ccccc2C(=O)Nc2ccccc2C(=O)NCc2ccco2)cc1 | inactive: 7.09% |
| COc1ccc(/C=C/C(=O)NCc2cccnc2)cc1 | inactive: 16.3% |
| CCOC(=O)C1(CC2CCCCO2)CCN(Cc2nc3ccccc3nc2C)CC1 (centres undefined) | inactive: -19.3% |
| CCC(C)(C)NC(=O)CN(C(=O)CCC(=O)Nc1nccs1)c1ccc2c(c1)OCCO2 | inactive: -16.5% |
| NNC(=O)c1sc(-c2ccc(Cl)cc2)cc1N | inactive: 6.14% |
| Cc1ccccc1NC(=O)Cn1c(=O)n(CCCCCC(=O)NCc2ccccc2Cl)c(=O)c2sccc21 | inactive: -6.94% |
